Test results as given in patent US20090136523A1.

Legend:
Test in all cases: peptide microarray
peptide 43 (human) = target: peptide 43 (human)
peptide 112 (human) = target: peptide 112 (human)
peptide 128 (human) = target: peptide 128 (human)
peptide 130 (human) = target: peptide 130 (human)

B1: rhuMAb 411 (antibody, human IgG1, kappa)
heavy: EVQLVESGAGVKQPGGTLRLTCTASGFSLTTYGVHWVRQAPGKGLEWVGVIWGDGRTDYDAAFMSRVTISKDTSKSTVYLQMNSLRAEDTAVYYCMRNRHDWFDYWGQGTTVTVSS[letters of human IgG1 constant region left out]
light: DILLTQSPSSLSATPGERATITCRASQGIRNNLNWYQQKPGQAPRLLIYYSSNLQSGVPSRFSGSGSGTDFTLTISRLQPEDVAAYYCQQSIKLPFTFGSGTKVEIKRTVAAPSVFIFPPSDEQLKSGTASVVCLLNNFYPREAKVQWKVDNALQSGNSQESVTEQDSKDSTYSLSSTLTLSKADYEKHKVYACEVTHQGLSSPVTKSFNRGEC
Question: B1 was tested. Which Mean Signal Value (peptide 43 (human)) did it give?
Answer: Its Mean Signal Value is 0.

Question: And the Mean Signal Value (peptide 112 (human))?
Answer: Its Mean Signal Value is 0.

Question: And the Mean Signal Value (peptide 128 (human))?
Answer: The Mean Signal Value was 0.106.

Question: And the Mean Signal Value (peptide 130 (human))?
Answer: Its Mean Signal Value is 4.3.
